Data from PubChem BioAssay AID686970 (National Center for Advancing Translational Sciences (NCATS), 2013).
The whole screen tested about 360,000 compounds, of which about 6,000 (1.7%) were called active. This list was built around the results that the source calls inconclusive (neither active nor inactive); the mix of calls is not that of the screen. The call rests on the fitted dose curve; in most records, active means well fitted cell-killing curve with a large enough effect; inconclusive means small, poorly fitted or top-dose-only effect, or effect the other way; inactive means flat fitted curve, though single readings scatter. Potencies of inconclusive entries are left out as doubtful fits.

Assay: qHTS for induction of synthetic lethality in tumor cells producing 2HG: qHTS for the HT-1080-NT fibrosarcoma cell line;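 further: NT is the 2HG producing partner of a matched IDH1 knockdown line; nearly all actives have a fitted effect of over 55% in size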;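 on activity, negative = less viability: 0% = DMSO-treated cells and -100% = media-only wells without cells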
Conditions: HT-1080-NT fibrosarcoma viability, CellTiter-Glo ATP luminescence, 48 h; activity, negative = less viability: at 46.1 µM (top of the series) unless noted
How it was run: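 HT-1080-NT fibrosarcoma cells (2HG-overproducing), 750 cells/well in RPMI with 5% FBS, dosed after 2 h and incubated 48 h at 37C. CellTiter-Glo luminescence normalized to DMSO and no-cell wells; concentration-response curves fitted and classed.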
Potency means the concentration at half of the fitted maximal effect; tags describe the fitted curve by direction and shape.

SMILES	Potency	activity, negative = less viability
O=C(c1ccc(Cl)c(Cl)c1)N1CCN(Cc2ccc3c(c2)OCO3)CC1	inconclusive [cytotoxic, single point]	
Cc1cc(F)cc(-c2cc(C(=O)NCc3ccco3)[nH]n2)c1		inactive: 2.47%
COc1cc2c(cc1NC(=O)C(C)Sc1ccc(NC(C)=O)cc1)oc1ccccc12 (stereo unspecified)	inconclusive [cytotoxic, partial curve]	
Nc1nc(OCC2CCCCC2)c2[nH]cnc2n1	inconclusive [cytotoxic, full curve]	
CCOc1ccc(-c2nc(N)ncc2-c2ccc(Cl)cc2)c(O)c1	inconclusive [cytotoxic, single point]	
CCNC(=S)NNC(=O)c1cc(-c2cccc(OCC)c2)nc2ccccc12		inconclusive: 1.03% [cytotoxic]
COc1ccc(OC)c(Nc2cc(C)c3ccccc3n2)c1	inconclusive [cytotoxic, single point]	
O=C(/C=C/c1ccco1)NC(=S)Nc1ccc(C(=O)O)cc1		inactive: -3.11%
O=C(Cn1nnc(-c2ccncc2)n1)N(C1CCCCC1)C1CCCCC1		inactive: 2.45%
CCCS(=O)(=O)NC(=O)C1(C)CCCN(C(=O)c2ccccc2)C1 (stereo unspecified)	inconclusive [rising, single point]	
Cc1ccc(-c2ccc(CN3C(C)C(=O)N(Cc4cn(Cc5ccco5)nn4)CCS3(=O)=O)cc2)c(C)c1 (stereo unspecified)	inconclusive [cytotoxic, single point]	
COc1ccc(NC(=O)C2CCCC2)cc1S(=O)(=O)N1CCOCC1		inactive: 1.44%
CN(C)CCN(Cc1ccccc1)c1nccc(N(C)C)c1C#N		inactive: 7.45%
COc1ccc(C(C)=O)cc1CSc1nnc(SCc2cc(C(C)=O)ccc2OC)s1	inconclusive [rising, single point]	
Cc1cc(C)n2c(Nc3ccc4c(c3)OCCO4)c(CCc3ccccc3)nc2n1	inconclusive [cytotoxic, single point]	
CCN(CC)S(=O)(=O)c1ccc(NC(=O)CSc2nnc(-c3ccc(F)cc3)o2)cc1	inconclusive [cytotoxic, single point]	
O=C(CCc1ccccc1)Nc1ccc(Cl)cn1	active: 5.8 µM	
COc1cccc(NC2=C(Cl)C(=O)OC2OC(=O)c2ccco2)c1 (stereo unspecified)	inconclusive [cytotoxic, single point]	
CCN(CC)S(=O)(=O)c1cccc(C(=O)Nc2cccc(C)c2)c1		inactive: -16.1%
COc1ccc(Cn2c(O)c(C=Nc3ccc(OC)cc3)c3ccccc3c2=O)cc1	inconclusive [rising, partial curve]	
COc1cc(CN2CCCCC2C(=O)Nc2ccc(Oc3ccccc3)nc2)ccc1O (stereo unspecified)		inactive: -1.29%
CC(C)CC(=O)NC(c1cccs1)c1ccc2cccnc2c1O (stereo unspecified)	inconclusive [cytotoxic, full curve]	
Cc1nn(CCCC(=O)Nc2cccnc2)c(C)c1[N+](=O)[O-]	inconclusive [rising, single point]	
COc1ccccc1CNC(=O)C1CCCN(S(=O)(=O)c2cccc3nonc23)C1 (stereo unspecified)		inactive: 5.94%
COc1ccccc1Cc1c(C2CCCCC2)nc2ccc(Cl)cn12	inconclusive [cytotoxic, single point]	
CCOc1cc(/C=N/N=C(/N)c2nonc2N)cc(Br)c1OCc1ccc(Cl)cc1	inconclusive [cytotoxic, partial curve]	

SMILES	Potency	activity, negative = less viability
N/C(=N\OC(=O)COc1ccc2ccccc2c1)c1ccccn1	inconclusive [cytotoxic, single point]	
COc1ccc(CN2CCCC(C(=O)N3CCCCC3)C2)cc1OC (stereo unspecified)		inactive: 18.6%
CN1CCN(c2ccc(NC(=O)c3ccc([N+](=O)[O-])o3)cc2Cl)CC1	active: 5.8 µM	
CC(=O)c1c(C)[nH]c(C(=O)Nc2ccc3c(c2)OCCO3)c1C		inconclusive: 26.4%
CC1CN(C(=O)/C=C/c2ccc([N+](=O)[O-])s2)CC(C)O1 (stereo unspecified)	inconclusive [cytotoxic, partial curve]	
CC(OC(=O)C1=COCCO1)C(=O)NC1CCCC(C)C1C (stereo unspecified)		inactive: -0.388%
CC(=O)Nc1cc(-c2cccc(CO)c2)cn2c(-c3ccc(C(C)=O)cc3)cnc12		inactive: -25.6%
Cc1cccc2sc(NC(=O)C3CCN(C(=O)c4ccco4)CC3)nc12	inconclusive [cytotoxic, partial curve]	
CC1CCCC(C)N1C(=O)c1ccccc1Nc1ccc(SC(F)F)cc1 (stereo unspecified)	active: 23.1 µM	
O=C(NC(=S)NCCO)c1cn(-c2ccccc2)nc1-c1ccccc1		inactive: 23.4%
COc1ccccc1OCc1ccc(C(=O)Nc2ccncc2)o1		inactive: -8.66%
COc1ccc(NC(=S)NNC(=O)c2ccccc2OC(F)F)cc1	active: 3.55 µM	
Cc1onc(-c2ccccc2Cl)c1C(=O)NCC1CCCO1 (stereo unspecified)		inactive: 1.05%
Cc1cc(NC(=O)/C=C/c2ccc(Br)cc2)no1		inactive: 0.934%
CCc1nc2c(OCc3ccccc3C)cccn2c1N(C)C(=O)CC(C)C		inactive: -15.7%
CCn1nc(C)cc1C(=O)N1CCc2c([nH]c3ccccc23)C1c1cc(F)ccc1F (stereo unspecified)	inconclusive [cytotoxic, single point]	
COc1ccc(-c2oc3cc(OC(C)=O)cc(OC(C)=O)c3c(=O)c2OC)cc1	inconclusive [cytotoxic, single point]	
COc1ccc(-c2coc3c(C(=O)NCCN4CCOCC4)cccc23)c(C)c1	inconclusive [cytotoxic, single point]	
COc1ccc(-c2sc3ccc(OC)cc3c2-c2ccc(O)cc2)cc1	inconclusive [cytotoxic, single point]	
COC(=O)C1=C(C)Nc2[nH]c(=S)[nH]c(=O)c2C1c1ccc(O)cc1 (stereo unspecified)		inactive: 9.02%
Cc1cc(C(=O)Nc2sc3c(c2C#N)CCC3)no1	active: 10 µM	
CC(C)(C#CCN1CCCCC1)OCCOC(c1ccccc1)c1ccccc1	inconclusive [cytotoxic, single point]	
COc1ccc(N2C3=[N+](CCCC3)CC2(C)O)cc1 (stereo unspecified)		inactive: 0.216% [at 9.24 µM]
Cc1ccc(/C=N/OC(=O)c2c(C)noc2-c2snnc2C)cc1	inconclusive [rising, single point]	
O=C(NNC(=O)c1ccc([N+](=O)[O-])cc1C(=O)O)c1ccncc1		inactive: 11.5%
CCOc1ccccc1N1CCN(Cc2cccc(OC)c2O)CC1		inactive: 7.87%

SMILES	Potency	activity, negative = less viability
c1ccc(Nc2cc(Nc3ccccc3)[nH]n2)cc1	inconclusive [cytotoxic, single point]	
COc1ccc(C(C)(O)c2nc(-c3cccc(NC(C)=O)c3)cs2)cc1 (stereo unspecified)		inactive: 5.03%
Cc1c(NS(=O)(=O)c2cccc(C(=O)Nc3cccc(F)c3)c2)c(=O)n(-c2ccccc2)n1C		inactive: -3.6%
c1cc2cc(CNc3nc(NCC4CC4)nc4ccsc34)ccc2o1	inconclusive [cytotoxic, single point]	
O=C(COc1ccc(Cl)cc1Cl)NC(=O)N1CCCCC1		inactive: 0%
Cc1nn(Cc2ccc(Cl)cc2Cl)c(C)c1NC(=O)CCl	inconclusive [cytotoxic, single point]	
COc1ccc(N(C(=O)Cc2cccs2)C2C=CS(=O)(=O)C2)cc1 (stereo unspecified)		inactive: 4.36%
COc1ccc(C(=O)NC(=S)Nc2ccccc2N2CCOCC2)cc1Br		inactive: 4.96%
CC(=O)NCCNC(=O)C1Cc2c(-c3cccc(NC(C)=O)c3)ccnc2O1 (stereo unspecified)	inconclusive [rising, single point]	
CC(=O)c1cccc(S(=O)(=O)Nc2cccc(S(=O)(=O)NC3=NCCC3)c2)c1		inactive: -0.658%
Clc1ccc(-c2nc(C3CCCCC3)no2)cc1		inactive: 16%
COc1ccc(C(C)=O)cc1Cn1c(C)c(C(=O)NCc2ccc(C(F)(F)F)cc2)sc1=O	inconclusive [cytotoxic, single point]	
COc1ccc(-n2c(=O)c3c4c(sc3n3c(=S)[nH]nc23)CCCC4)cc1	inconclusive [rising, single point]	
Cc1ccc2oc(=O)n(CCC(=O)Nc3ccc(N4CCOCC4)cc3)c2c1		inactive: 11.2%
Cc1occc1-c1nnc(SCC(=O)c2ccc(F)cc2)o1		inactive: -0.802%
COc1ccc(CN(C)CC(O)COC(c2ccc(OC)cc2)c2ccc(OC)cc2)cc1 (stereo unspecified)	active: 20.6 µM	
CCN(CC)C(=O)C1=C(C)N(Cc2ccc(C(C)(C)C)cc2)C(=O)C(CC(=O)NCCCCc2ccccc2)C1 (stereo unspecified)	inconclusive [cytotoxic, single point]	
Cc1cccc(NC(=S)NCC(C)CSc2ccc(Cl)cc2)c1 (stereo unspecified)	inconclusive [cytotoxic, single point]	
CCOC(=O)/C(C#N)=C/c1c(N2CCCCCC2)nc2ccccn2c1=O		inactive: -0.46%
Cc1cc(-c2cc(N)n(-c3ccccc3)n2)c(C)n1C1CCCC1	inconclusive [cytotoxic, single point]	
C[n+]1c2n(c3ccccc31)N=C(c1ccc(Cl)cc1)CS2	inconclusive [cytotoxic, single point]	
Cc1ccc(SCC(=O)OCC(=O)N(CC(C)C)c2c(N)n(Cc3ccccc3)c(=O)[nH]c2=O)c(C)c1	inconclusive [cytotoxic, single point]	
C=C(C)C(=O)Oc1ccc(N=Nc2ccc(C)cc2)ccc1=O	inconclusive [cytotoxic, partial curve]	
O=C(CCl)Nc1cccc(Oc2cnccn2)c1	inconclusive [cytotoxic, single point]	
